# In the supplement of paper PMC3334620:
# In all, about 33,000 sequences were measured (“E-score (-0.5 to 0.5)”: median about -0.021, highest 2% from about 0.32 on). The list shows a part of the results.
# Target: T1, Zap1 (UniProt P47043)
# T1 sequence: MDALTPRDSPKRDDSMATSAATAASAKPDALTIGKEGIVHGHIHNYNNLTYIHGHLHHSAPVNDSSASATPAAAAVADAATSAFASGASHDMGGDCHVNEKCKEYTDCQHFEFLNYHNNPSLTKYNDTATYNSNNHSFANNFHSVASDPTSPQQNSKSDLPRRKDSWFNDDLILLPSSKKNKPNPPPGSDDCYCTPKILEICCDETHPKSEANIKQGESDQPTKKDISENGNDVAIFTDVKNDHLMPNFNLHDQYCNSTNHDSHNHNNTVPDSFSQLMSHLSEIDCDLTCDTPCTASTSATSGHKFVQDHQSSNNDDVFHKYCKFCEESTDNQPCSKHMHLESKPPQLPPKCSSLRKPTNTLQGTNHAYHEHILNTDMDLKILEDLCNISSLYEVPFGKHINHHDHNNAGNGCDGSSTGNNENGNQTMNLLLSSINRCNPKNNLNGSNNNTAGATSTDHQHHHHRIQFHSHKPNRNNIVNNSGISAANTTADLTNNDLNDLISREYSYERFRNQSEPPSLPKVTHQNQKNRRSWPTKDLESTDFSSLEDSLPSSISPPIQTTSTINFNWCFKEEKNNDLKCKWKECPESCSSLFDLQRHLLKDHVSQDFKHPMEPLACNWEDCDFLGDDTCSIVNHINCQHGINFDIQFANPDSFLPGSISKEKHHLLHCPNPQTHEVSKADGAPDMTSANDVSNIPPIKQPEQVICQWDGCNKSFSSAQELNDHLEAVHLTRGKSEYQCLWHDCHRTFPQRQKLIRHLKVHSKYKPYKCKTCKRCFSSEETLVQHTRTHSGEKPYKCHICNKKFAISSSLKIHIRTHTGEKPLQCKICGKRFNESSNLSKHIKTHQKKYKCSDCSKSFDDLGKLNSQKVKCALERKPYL
# Test: PBM E-score (8-mer binding enrichment) (E-score (-0.5 to 0.5)); higher = stronger / more preferred TF binding; most listed sequences are background and not binding sites
# Settings: protein concentration: 200 nM; construct: GST-full length
# Summary of the method: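 Full-length yeast transcription factors or their DNA-binding domains, GST-tagged and expressed with PURExpress, were applied at about 100-200 nM to universal all-10-mer Agilent arrays. These arrays had been made double-stranded by primer extension on fresh or once-stripped slides. Detection used fluorescent anti-GST, normalisation used masliner, and E-scores for ungapped eight-base words pooled with reverse complements came from the Universal PBM Analysis Suite.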
row,Sequence,PBM E-score
1,AGAATCTA,0.0831
2,AACTTGTG,0.16
3,CGTCCAAA,0.122
4,ATTTTAGG,0.198
5,AAACGATA,0.1
6,AAAAGTAG,0.0863
7,CGGAGGAC,-0.25
8,AACGGGTA,0.375
9,AGAGTGAG,-0.145
10,CACCGACA,-0.156
11,ACTTGTCA,-0.214
12,AGCAAGAC,-0.0397
13,ACACGCCG,0.0254
14,GTGCCCGA,-0.105
15,AAGTACTG,-0.021
16,AAACACAA,0.138
17,CTTGCGTA,-0.00416
18,AGACGCGA,-0.036
19,ACATCCCG,-0.116
20,CAGGTGAC,0.241
21,CGGTCCTC,-0.15
22,CGAAACTA,0.124

row,Sequence,PBM E-score
1,GGTCATGA,0.346
2,AGTGCAAT,0.0115
3,CCTCGCGC,-0.00774
4,CGATTTGC,-0.162
5,ATACCTGA,0.312
6,CTCATAAA,0.0219
7,CCTAGACA,-0.139
8,AGGCCCCG,-0.0598
9,ATCTATGA,-0.253
10,ATCTAGAG,-0.0663
11,AGAGCTCA,-0.133
12,ACCTCATA,0.243
13,ATGTGTAG,-0.117
14,GGAGGTAA,0.289
15,GCGATCGC,0.109
16,CTCGTGTA,0.089
17,GGCTTGAC,-0.0797
18,ACAATGAA,0.0953
19,CGCTGTGA,-0.023
20,AGCCGGTA,0.0757
21,CCCCCCAG,-0.311
22,GGGACAGA,-0.228

row,Sequence,PBM E-score
1,GATTACAA,-0.0141
2,ATTGGTCG,0.153
3,CGCGACGC,-0.0704
4,TCAAGCGA,-0.0513
5,CAAGACAC,-0.0181
6,CCGGCGCA,-0.137
7,CGTACTCA,-0.0651
8,CAAAATTA,0.287
9,CCCCAAGG,0.123
10,CTGCTTCA,-0.223
11,CCAACTGA,-0.00692
12,AAACATGT,0.14
13,CGTCATAA,-0.0193
14,AAATCCAC,-0.0197
15,GTTGCACA,-0.0449
16,ACGAAGAA,0.0665
17,AGCCCGTA,-0.271
18,ATGAGAGG,-0.0137
19,ATTCACAG,0.0175
20,AGAGCTTG,-0.11
21,GTACGATA,-0.0268
22,AACGTTTA,0.114

row,Sequence,PBM E-score
1,GCCACTCC,-0.0945
2,ACGGAATA,0.142
3,ACGCCGGA,-0.282
4,CCCGTCGC,-0.0742
5,AAACACCC,0.226
6,AGACTTTG,-0.141
7,AGGGGGGG,-0.39
8,ACTGCTAG,-0.269
9,CCAAGGAA,-0.116
10,GATCAGTA,0.055
11,AATTTTGA,0.279
12,GATAAAAA,0.163
13,CCCGTCGA,-0.0433
14,ACTATGGA,-0.0878
15,AAAGTGTC,-0.114
16,AGGCAAGC,-0.266
17,ATATACTG,0.119
18,ATTTTTTC,0.0779
19,CCTGGTCG,-0.0551
20,CCAAGTAG,-0.115
